According to a collection of fitness landscapes (doi:10.1126/science.1257360):
Some of the results follow.

B1: PhoQ; a variant is named by its letters at X, in order, P23837 (parent)
chain: MKKLLRLFFPLSLRVRFLLATAAVVLVLSLAYGMVALIGYSVSFDKTTFRLLRGESNLFYTLAKWENNKLHVELPENIDKQSPTMTLIYDENGQLLWAQRDVPWLMKMIQPDWLKSNGFHEIEADVNDTSLLLSGDHSIQQQLQEVREDDDDAEMTHSVAVNVYPATSRMPKLTIVVVDTIPVELKSSYMVWSWFIYVLSANLLLVIPLLWVAAWWSLRPIEALAKEVRELEEHNRELLNPATTRELTSLVRNLNRLLKSERERYDKYRTTLTDLTHSLKTPLXXLQXXLRSLRSEKMSVSDAEPVMLEQISRISQQIGYYLHRASMRGGTLLSRELHPVAPLLDNLTSALNKVYQRKGVNISLDISPEISFVGEQNDFVEVMGNVLDNACKYCLEFVEISARQTDEHLYIVVEDDGPGIPLSKREVIFDRGQRVDTLRPGQGVGLAVAREITEQYEGKIVAGESMLGGARMEVIFGRQHSAPKDE

Variants of: B1
Assay: enrichment ratio after two sorts for PhoP signalling (ratio (wild type AVST 3.29)); higher = more functional
Settings: with PhoP (E. coli)

Variant	enrichment ratio
RVWR	≤ 0.25
TMLE	2.87
FDTT	≤ 0.25
LQWG	≤ 0.25
ADTL	≤ 0.25
ACMG	14.3
VDYW	≤ 0.25
WIHC	≤ 0.25
MFIG	≤ 0.25
IAWL	≤ 0.25
DQIW	≤ 0.25
YIHK	≤ 0.25
LMPQ	≤ 0.25
VEAH	≤ 0.25
KHKP	≤ 0.25
DPLR	≤ 0.25
EHWG	≤ 0.25
NCTK	≤ 0.25
MLAQ	≤ 0.25
EKTD	≤ 0.25
DCFR	0.69
SIHD	≤ 0.25
GICT	7.19
GCCY	≤ 0.25
KLAY	≤ 0.25

Variant	enrichment ratio
QFIN	≤ 0.25
TKEE	≤ 0.25
WEGW	≤ 0.25
FKCP	≤ 0.25
ISVH	≤ 0.25
TMMA	1.02
ETFL	≤ 0.25
TGLM	26.9
YAKP	≤ 0.25
YFDC	≤ 0.25
KYHP	≤ 0.25
PKVR	≤ 0.25
SRVW	≤ 0.25
TKPD	≤ 0.25
FEKR	≤ 0.25
KIAS	≤ 0.25
KYHY	≤ 0.25
LRKM	≤ 0.25
GSPP	≤ 0.25
YYCC	≤ 0.25
NGRV	≤ 0.25
EQPC	≤ 0.25
MMCY	≤ 0.25
TSAN	9.44
MNLY	≤ 0.25

Variant	enrichment ratio
AGDI	≤ 0.25
PTDT	≤ 0.25
LVTY	≤ 0.25
SAEQ	≤ 0.25
YHPE	≤ 0.25
HNLD	≤ 0.25
WAWQ	≤ 0.25
HVFI	≤ 0.25
GQGS	≤ 0.25
NLYR	≤ 0.25
DESN	≤ 0.25
RNES	≤ 0.25
PCRQ	≤ 0.25
RQNE	≤ 0.25
INDK	≤ 0.25
NFGA	≤ 0.25
VGFD	≤ 0.25
TTAW	5.53
ECHH	≤ 0.25
QAYK	≤ 0.25
SIKF	≤ 0.25
MSDE	≤ 0.25
NLRP	≤ 0.25
RLPV	≤ 0.25
RMSI	≤ 0.25

Variant	enrichment ratio
LCDY	≤ 0.25
FVNL	≤ 0.25
EIQW	≤ 0.25
DSCE	≤ 0.25
QQYG	≤ 0.25
EYVK	≤ 0.25
KSEW	≤ 0.25
EAVI	≤ 0.25
LVCA	≤ 0.25
LPLP	≤ 0.25
DYSF	≤ 0.25
QNHA	≤ 0.25
WKTG	≤ 0.25
PGAP	≤ 0.25
IRRC	≤ 0.25
GAKN	≤ 0.25
KHMA	≤ 0.25
QMES	≤ 0.25
FPYN	≤ 0.25
VCRE	≤ 0.25
NTNE	≤ 0.25
AVRP	≤ 0.25
PAPT	≤ 0.25
LEIP	≤ 0.25
QQTR	≤ 0.25

Variant	enrichment ratio
LSTM	≤ 0.25
HAMV	≤ 0.25
TLLY	≤ 0.25
YNTG	0.356
HMSN	≤ 0.25
SAPP	≤ 0.25
AHNF	9.49
DAMM	≤ 0.25
NLSD	≤ 0.25
QGVD	≤ 0.25
VSVM	1.27
MKES	≤ 0.25
THHH	≤ 0.25
WRGN	≤ 0.25
TYTI	0.291
KYIF	≤ 0.25
DNDF	≤ 0.25
IKDQ	≤ 0.25
ATTG	12
KAVQ	≤ 0.25
YGAE	≤ 0.25
RCWR	≤ 0.25
YTGP	0.281
ANSP	≤ 0.25
LIVC	≤ 0.25

Variant	enrichment ratio
SCYK	≤ 0.25
SVMR	12.6
YPKK	≤ 0.25
KYLK	≤ 0.25
DSTM	≤ 0.25
FKFP	≤ 0.25
KDWM	≤ 0.25
VVRH	≤ 0.25
WFAY	≤ 0.25
APLF	≤ 0.25
YSLT	4.38
PDFS	≤ 0.25
EGTD	≤ 0.25
LDWW	≤ 0.25
ATCK	3.27
HQYD	≤ 0.25
WDLT	≤ 0.25
IYVW	≤ 0.25
EFET	≤ 0.25
LHMD	≤ 0.25
KKFV	≤ 0.25
IQLH	≤ 0.25
TYIM	≤ 0.25
AYCV	≤ 0.25
KQTT	≤ 0.25

Variant	enrichment ratio
EMLQ	≤ 0.25
GNPY	≤ 0.25
GDLT	≤ 0.25
QMGG	≤ 0.25
FHFH	≤ 0.25
TWVM	≤ 0.25
MKPI	≤ 0.25
PDTQ	≤ 0.25
PLWP	≤ 0.25
SFYM	≤ 0.25
MVMA	≤ 0.25
MCII	≤ 0.25
PGHE	≤ 0.25
DECP	≤ 0.25
WWPY	≤ 0.25
SAKI	≤ 0.25
HPHT	≤ 0.25
MPWR	≤ 0.25
PSKT	≤ 0.25
FAQS	≤ 0.25
VQFM	≤ 0.25
PEDL	≤ 0.25
GVIT	≤ 0.25
KLSL	≤ 0.25
GQCD	≤ 0.25

Variant	enrichment ratio
PTDQ	≤ 0.25
PYMQ	≤ 0.25
GHPS	≤ 0.25
DEFY	≤ 0.25
DYCT	≤ 0.25
EHKV	≤ 0.25
NRNE	≤ 0.25
SIDW	≤ 0.25
PSIN	≤ 0.25
YQCI	≤ 0.25
GHVY	≤ 0.25
DHPF	≤ 0.25
GDTF	≤ 0.25
QSSK	≤ 0.25
DPIA	≤ 0.25
YMCK	≤ 0.25
IASL	≤ 0.25
HELM	5.66
ADLS	2.75
SRRQ	≤ 0.25
